# Source: the supplement of paper PMC8291772
# ± gives the standard error. The list shows a part of the results.
# Molecular target: terminal deoxynucleotidyl transferase (calf thymus) (UniProt P06526)
# Test: TdT poly-dT extension signal (Cy3 hybridisation fluorescence, uncapped minus capped) (fluorescence a.u.); higher = more efficient initiation of TdT extension
# Conditions: initiator chemistry: L-DNA (mirror-image), free 5'-OH (3'-tethered via HEG linker)
# Method: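 All mono- to pentamer D-DNA or L-DNA initiators were made by forward (3'->5') photolithographic in situ synthesis on glass on a hexaethylene glycol linker, leaving a free 5'-OH. Each was made in uncapped and DMTr-dT-capped versions, about 11 replicates each. Arrays were extended with calf thymus TdT (0.2 U/uL), 100 uM dTTP and 0.25 mM CoCl2 for 120 min at 37 C, hybridised with an rA18-Cy3 probe and scanned at 532 nm. The value is the mean uncapped minus the mean capped signal. IDs read 5'->3'. L-DNA is mirror-image; D-DNA 5'-OH initiators were below LOD (no extension).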
# UniProt P06526, sequence (P06526 whole entry): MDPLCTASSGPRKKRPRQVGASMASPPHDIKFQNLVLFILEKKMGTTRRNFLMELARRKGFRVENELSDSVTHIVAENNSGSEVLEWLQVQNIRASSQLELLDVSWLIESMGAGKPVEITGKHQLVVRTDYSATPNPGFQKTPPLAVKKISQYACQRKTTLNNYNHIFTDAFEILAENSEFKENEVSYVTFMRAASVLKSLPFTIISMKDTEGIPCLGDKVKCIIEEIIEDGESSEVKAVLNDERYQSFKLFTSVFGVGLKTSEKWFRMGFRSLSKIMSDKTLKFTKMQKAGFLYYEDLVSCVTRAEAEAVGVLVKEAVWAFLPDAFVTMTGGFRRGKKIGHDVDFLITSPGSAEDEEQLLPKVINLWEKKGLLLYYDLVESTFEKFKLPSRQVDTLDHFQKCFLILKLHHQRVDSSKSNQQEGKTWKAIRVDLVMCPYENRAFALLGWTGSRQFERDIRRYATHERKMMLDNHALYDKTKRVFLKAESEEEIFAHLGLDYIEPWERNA
row,Sequence,TdT poly-dT extension signal
1,ACGAC,64.2 ± 4.2
2,CATG,78.5 ± 10
3,ATGCA,108 ± 11
4,TTGCG,273 ± 13
5,CTGTT,113 ± 11
6,GTCA,95.9 ± 6.2
7,GTACC,143 ± 13
8,TTTCT,270 ± 29
9,CAAA,96.2 ± 6.6
10,GGTGA,59 ± 7
11,GGCTG,54.3 ± 3.8
12,AGGGG,74.1 ± 13
13,TGGGA,105 ± 6.2
14,CTCAA,147 ± 10
15,ATAA,243 ± 20
16,AAATA,91.2 ± 8.3
17,CACGG,83.8 ± 5.8
18,CGGGC,61.7 ± 4.4
19,CCGT,58.5 ± 7.2
20,TCGTT,114 ± 9.9
21,TTTCA,281 ± 27
22,TTCA,275 ± 22
23,GAGAA,65.9 ± 4.4
24,GTAT,140 ± 12

row,Sequence,TdT poly-dT extension signal
1,TATAT,197 ± 14
2,CAGCG,58.2 ± 5.9
3,GGAT,71.4 ± 6.6
4,ACCCC,59.9 ± 9.1
5,GACCC,73.4 ± 6.1
6,GGTGG,89.4 ± 11
7,GCAGG,78.5 ± 7.1
8,GAGGC,53.1 ± 4.1
9,GTTA,139 ± 12
10,CCCCT,99.3 ± 8.6
11,TACTC,147 ± 15
12,GTTTA,123 ± 9.7
13,ACTGT,63.6 ± 7.2
14,AGTAG,54.2 ± 7.2
15,CCTC,76.5 ± 9.3
16,ATCAT,172 ± 14
17,ACGGG,72.6 ± 6.7
18,AGGTG,48.6 ± 4.7
19,TTGGA,284 ± 17
20,CCTG,75.8 ± 8.4
21,GGAA,79.2 ± 7.5
22,TGTTG,106 ± 9.6
23,CCCGT,98 ± 11
24,AGAAC,68.8 ± 8.4

row,Sequence,TdT poly-dT extension signal
1,GGCA,57.1 ± 4.9
2,CGTCC,38.5 ± 4.3
3,TCTAT,183 ± 10
4,ACTAA,100 ± 8.7
5,TCCCG,199 ± 19
6,ACATT,80 ± 10
7,TCTGC,137 ± 12
8,TGTCG,104 ± 7.6
9,AGGCT,29.7 ± 4.2
10,TTGAC,338 ± 26
11,GAAAG,86.3 ± 6.1
12,TTCCT,286 ± 28
13,CGCCC,60.2 ± 7.1
14,CGTT,58 ± 7.4
15,TGTCT,112 ± 8.9
16,GCGGC,73.3 ± 6.8
17,GCACT,74.3 ± 8.6
18,TCTA,181 ± 17
19,AGATT,71.6 ± 8.4
20,TCTCC,117 ± 8.4
21,ACGGA,65.6 ± 6.7
22,AGCAG,58.4 ± 5.4
23,GACTT,88.6 ± 7.5
24,CTGG,124 ± 17

row,Sequence,TdT poly-dT extension signal
1,CTAG,116 ± 12
2,GCTCA,73.4 ± 7.7
3,CCCAT,112 ± 9.1
4,CCGG,80.6 ± 5.2
5,GTCT,123 ± 12
6,TCATT,134 ± 15
7,TACGC,151 ± 16
8,CACTA,78.1 ± 6.3
9,GCCGA,98.2 ± 9.2
10,TATAA,200 ± 18
11,CTAGA,170 ± 11
12,GTGTG,108 ± 8.6
13,CTTG,132 ± 6.2
14,GAAGA,88 ± 8.5
15,ACCTC,58.7 ± 6.9
16,TGAAA,209 ± 11
17,ATGG,131 ± 12
18,CTCAT,130 ± 12
19,CAATT,68.1 ± 6.4
20,GGATC,67.1 ± 5.8
21,TGATT,168 ± 10
22,GTAA,143 ± 13
23,GGGCG,83.8 ± 6.6
24,ATGTA,118 ± 12

row,Sequence,TdT poly-dT extension signal
1,GAATT,89.7 ± 8
2,GGTGT,55.2 ± 5
3,GCACA,78.5 ± 4.8
4,TTAGG,444 ± 29
5,GCCGC,93.5 ± 6.3
6,CTGAA,147 ± 12
7,TAGT,121 ± 11
8,TCCCC,175 ± 17
9,AACT,79 ± 11
10,CCCT,93.8 ± 6.5
11,ACATG,69.4 ± 5.7
12,GCTTG,59.7 ± 8.3
13,TATTA,196 ± 11
14,GTGTT,100 ± 8.2
15,ACAAG,96.1 ± 7.5
16,CCGTC,48.6 ± 6.6
17,ACGC,55.8 ± 9.1
18,GCTGA,75.3 ± 5.4
19,GTTT,122 ± 11
20,ATTGG,180 ± 13
21,TGGGT,105 ± 9.8
22,AGTGA,57.2 ± 5.7
23,ATAG,163 ± 22
24,GAGCA,59 ± 5.4

row,Sequence,TdT poly-dT extension signal
1,AGCC,46.8 ± 7.6
2,GCCCG,83.6 ± 6.6
3,ACTCG,65.5 ± 6.4
4,GTTAG,158 ± 11
5,CACG,57.5 ± 7.7
6,TACTT,154 ± 10
7,TGACA,165 ± 8.2
8,TATGC,148 ± 11
9,ACTTG,74.5 ± 4.6
10,AGAAG,68.4 ± 6.8
11,GAGAG,60.9 ± 4.4
12,CATGT,61.4 ± 5.1
13,ATTCT,136 ± 8.1
14,TAACG,195 ± 11
15,ATTT,160 ± 15
16,CTGAG,130 ± 11
17,CTGAC,128 ± 9.9
18,TCTG,146 ± 9.6
19,AAGAG,61.4 ± 6.7
20,TCAGA,192 ± 8.6
21,GGGCA,50.3 ± 7.4
22,GTAGC,160 ± 11
23,CCTTT,53 ± 6.8
24,GAGCC,63.7 ± 6.2

row,Sequence,TdT poly-dT extension signal
1,ACCGG,103 ± 8.1
2,TTGCT,229 ± 24
3,ACGTA,54.2 ± 7.7
4,ATCA,174 ± 13
5,CTCCC,112 ± 10
6,AGGTA,30.3 ± 2.8
7,ACGCA,49.9 ± 5.1
8,ACTT,68.9 ± 6.1
9,AAACA,85.8 ± 6.2
10,TGAGG,138 ± 12
11,TGGCG,108 ± 11
12,TAGAG,129 ± 13
13,AAGAA,62 ± 6.3
14,GTTAC,130 ± 11
15,GAGTT,40.6 ± 5.8
16,CCTAT,92.3 ± 5.7
17,CCTCC,74.1 ± 8.8
18,CAAGA,81.3 ± 4.5
19,ACGTT,49.6 ± 7
20,GCTT,64.4 ± 4.5
21,CTCG,124 ± 17
22,CAACC,78.5 ± 6.7
23,CTAAG,215 ± 13
24,GGTAA,63.1 ± 7.8

row,Sequence,TdT poly-dT extension signal
1,TAGG,117 ± 11
2,TGCAA,135 ± 11
3,CCTAC,65.1 ± 9.5
4,ACTCT,59.7 ± 8.8
5,GTGC,88.4 ± 10
6,TAGCA,110 ± 6.3
7,CCGCG,87.7 ± 5.1
8,GATAA,105 ± 12
9,GTAGT,130 ± 11
10,AGTTA,36.8 ± 4.9
11,TTGTA,245 ± 16
12,GCAA,72.9 ± 6
13,TCAC,167 ± 17
14,ATGA,143 ± 10
15,CGCT,42.9 ± 7.5
16,GATGA,75.2 ± 7.2
17,TTCTA,312 ± 31
18,AGAT,74.9 ± 6
19,GCGCT,57.5 ± 4.6
20,ACCCT,51.4 ± 7.5
21,TCGCA,149 ± 9.5
22,GGTT,50.9 ± 5.2
23,TCTTG,143 ± 14
24,TCGAA,187 ± 8.6

row,Sequence,TdT poly-dT extension signal
1,CGACT,63.7 ± 5.4
2,AGGCG,46.6 ± 6.6
3,GTTCT,130 ± 18
4,CTGAT,127 ± 9.7
5,AGCGC,57.8 ± 6.1
6,CTAAC,201 ± 14
7,GTCGT,133 ± 4.9
8,GGTCA,40.5 ± 5.1
9,CCAGT,88.1 ± 7.4
10,AGCGG,74.6 ± 6.3
11,GTAC,144 ± 18
12,TGCGA,157 ± 7.9
13,CCATG,100 ± 8.1
14,ATCGC,174 ± 6.9
15,GCCAA,111 ± 10
16,GAACA,87.7 ± 5.5
17,GAATC,80.3 ± 5.6
18,AGCA,47.1 ± 6
19,GATCT,70.7 ± 5.6
20,TGAG,154 ± 13
21,TACGT,180 ± 15
22,CGCTG,56.2 ± 6
23,CTCTT,122 ± 10
